Test results published in paper PMC9911399, “Two distinct binding modes provide the RNA-binding protein RbFox with extraordinary sequence specificity”.
Substitutions are numbered along the chain they refer to; changes in the protein carry UniProt numbers. The list shows a part of the results.

B1: CCUACCA (DNA:RNA)
RNA: GGGAGACCGGAAUUCAGAUUGUCCCCUACCAUUAAAUCCCGUCGUAGCCACCA
DNA 1: CAATCTGAATTCCGGTCTCCC
DNA 2: TGGTGGCTACGACGGGATT
B2: UGAAAAG (DNA:RNA)
RNA: B1 RNA with C25U, C26G, U27A, C29A, C30A, A31G
DNA 1: CAATCTGAATTCCGGTCTCCC
DNA 2: TGGTGGCTACGACGGGATT
B3: ACAUGCC (DNA:RNA)
RNA: B1 RNA with C25A, U27A, A28U, C29G, A31C
DNA 1: CAATCTGAATTCCGGTCTCCC
DNA 2: TGGTGGCTACGACGGGATT
B4: CCGGUCU (DNA:RNA)
RNA: B1 RNA with U27G, A28G, C29U, A31U
DNA 1: CAATCTGAATTCCGGTCTCCC
DNA 2: TGGTGGCTACGACGGGATT
B5: AUUAAAA (DNA:RNA)
RNA: B1 RNA with C25A, C26U, C29A, C30A
DNA 1: CAATCTGAATTCCGGTCTCCC
DNA 2: TGGTGGCTACGACGGGATT
B6: AAGCUCC (DNA:RNA)
RNA: B1 RNA with C25A, C26A, U27G, A28C, C29U, A31C
DNA 1: CAATCTGAATTCCGGTCTCCC
DNA 2: TGGTGGCTACGACGGGATT
B7: ACUUAAU (DNA:RNA)
RNA: B1 RNA with C25A, A28U, C29A, C30A, A31U
DNA 1: CAATCTGAATTCCGGTCTCCC
DNA 2: TGGTGGCTACGACGGGATT
B8: CGCCCGC (DNA:RNA)
RNA: B1 RNA with C26G, U27C, A28C, C30G, A31C
DNA 1: CAATCTGAATTCCGGTCTCCC
DNA 2: TGGTGGCTACGACGGGATT
B9: AACCGGG (DNA:RNA)
RNA: GGGAGACCGGAAUUCAGAUUGUCCAACCGGGUUAAAUCCCGUCGUAGCCACCA
DNA 1: CAATCTGAATTCCGGTCTCCC
DNA 2: TGGTGGCTACGACGGGATT
B10: GUGGCGG (DNA:RNA)
RNA: B9 RNA with A25G, A26U, C27G, C28G, G29C
DNA 1: CAATCTGAATTCCGGTCTCCC
DNA 2: TGGTGGCTACGACGGGATT
B11: AACCGCC (DNA:RNA)
RNA: B9 RNA with G30C, G31C
DNA 1: CAATCTGAATTCCGGTCTCCC
DNA 2: TGGTGGCTACGACGGGATT
B12: CGAACCA (DNA:RNA)
RNA: B1 RNA with C26G, U27A
DNA 1: CAATCTGAATTCCGGTCTCCC
DNA 2: TGGTGGCTACGACGGGATT
B13: GAAUCUG (DNA:RNA)
RNA: B9 RNA with A25G, C27A, C28U, G29C, G30U
DNA 1: CAATCTGAATTCCGGTCTCCC
DNA 2: TGGTGGCTACGACGGGATT
B14: ACGGCGG (DNA:RNA)
RNA: B9 RNA with A26C, C27G, C28G, G29C
DNA 1: CAATCTGAATTCCGGTCTCCC
DNA 2: TGGTGGCTACGACGGGATT
B15: ACAAUUG (DNA:RNA)
RNA: B9 RNA with A26C, C27A, C28A, G29U, G30U
DNA 1: CAATCTGAATTCCGGTCTCCC
DNA 2: TGGTGGCTACGACGGGATT
B16: GGACGGC (DNA:RNA)
RNA: B9 RNA with A25G, A26G, C27A, G31C
DNA 1: CAATCTGAATTCCGGTCTCCC
DNA 2: TGGTGGCTACGACGGGATT
B17: GAGGGGU (DNA:RNA)
RNA: B9 RNA with A25G, C27G, C28G, G31U
DNA 1: CAATCTGAATTCCGGTCTCCC
DNA 2: TGGTGGCTACGACGGGATT
B18: CUAACCG (DNA:RNA)
RNA: B1 RNA with C26U, U27A, A31G
DNA 1: CAATCTGAATTCCGGTCTCCC
DNA 2: TGGTGGCTACGACGGGATT
B19: UACUUAC (DNA:RNA)
RNA: B9 RNA with A25U, C28U, G29U, G30A, G31C
DNA 1: CAATCTGAATTCCGGTCTCCC
DNA 2: TGGTGGCTACGACGGGATT
B20: GUCAAAG (DNA:RNA)
RNA: B9 RNA with A25G, A26U, C28A, G29A, G30A
DNA 1: CAATCTGAATTCCGGTCTCCC
DNA 2: TGGTGGCTACGACGGGATT

Target: T1, RBFOX1 RRM RbFoxmut (Fox-RRM*) (Homo sapiens, UniProt Q9NWB1 109-208, R118D;E147R;N151S;E152T)
T1 sequence: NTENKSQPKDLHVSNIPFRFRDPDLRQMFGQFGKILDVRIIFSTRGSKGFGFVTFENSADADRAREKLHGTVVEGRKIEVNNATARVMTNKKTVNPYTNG
Assay: EMSA; HiTS-Eq, 1 nM pool, 10 min; buffer printed only for the single-RNA assays: 10 mM Tris pH 7.5, 150 mM NaCl, 3.4 mM EDTA, 0.001% NP-40, 30 C
Conditions: tags: His6 N-terminal (pET28a); label: 5' 32P
Summary of the method: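 Purified wild-type or mutant RbFox RRM at increasing concentrations was equilibrated with 1 nM of 5′-radiolabelled RNA carrying 7 randomized nucleotides for 10 min in 50 µL. Unbound RNA was separated by 8% native PAGE and sequenced. Relative association constants came from read-count changes of each RNA species compared with the control reaction, normalised to the cognate motif.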

**Q.** Which binding signal does the source give for B1 here?
**A.** The binding signal was 0.0784 KA relative to UGCAUGU.

**Q.** B2 was tested. Which binding signal did it give?
**A.** The binding signal was 0.0783 KA relative to UGCAUGU.

**Q.** For B3, which binding signal is on record?
**A.** Its binding signal is 0.151 KA relative to UGCAUGU.

**Q.** How did the binding signal turn out when B4 was run?
**A.** Its binding signal is 0.0567 KA relative to UGCAUGU.

**Q.** B5 was tested. Which binding signal did it give?
**A.** The binding signal was 0.138 KA relative to UGCAUGU.

**Q.** For B6, which binding signal is on record?
**A.** The binding signal was 0.0504 KA relative to UGCAUGU.

**Q.** For B7, which binding signal is on record?
**A.** The binding signal was 0.0831 KA relative to UGCAUGU.

**Q.** B8 was tested. Which binding signal did it give?
**A.** The binding signal was 0.114 KA relative to UGCAUGU.

**Q.** For B9, which binding signal is on record?
**A.** The binding signal was 0.0473 KA relative to UGCAUGU.

**Q.** B10 was tested. Which binding signal did it give?
**A.** The binding signal was 0.102 KA relative to UGCAUGU.

**Q.** With B11 as the binder, how does the binding signal read?
**A.** Its binding signal is 0.0692 KA relative to UGCAUGU.

**Q.** How did the binding signal turn out when B12 was run?
**A.** Its binding signal is 0.072 KA relative to UGCAUGU.

**Q.** For B13, which binding signal is on record?
**A.** Its binding signal is 0.197 KA relative to UGCAUGU.

**Q.** With B14 as the binder, how does the binding signal read?
**A.** Its binding signal is 0.0875 KA relative to UGCAUGU.

**Q.** B15 was tested. Which binding signal did it give?
**A.** Its binding signal is 0.0827 KA relative to UGCAUGU.

**Q.** Which binding signal does the source give for B16 here?
**A.** Its binding signal is 0.0886 KA relative to UGCAUGU.

**Q.** B17 was tested. Which binding signal did it give?
**A.** Its binding signal is 0.0938 KA relative to UGCAUGU.

**Q.** For B18, which binding signal is on record?
**A.** Its binding signal is 0.124 KA relative to UGCAUGU.

**Q.** For B19, which binding signal is on record?
**A.** Its binding signal is 0.103 KA relative to UGCAUGU.

**Q.** With B20 as the binder, how does the binding signal read?
**A.** Its binding signal is 0.0829 KA relative to UGCAUGU.
